{"source": "PubChem BioAssay AID504832", "about": "(National Center for Advancing Translational Sciences (NCATS), 2011)", "note": "Out of some 310,000 compounds screened, about 18,000 (5.8%) were called active. This list was built around the results that the source calls inconclusive (neither active nor inactive); the mix of calls is not that of the screen. The call rests on the fitted dose curve; in most records, active means well fitted inhibition curve with a large enough effect; inconclusive means small, poorly fitted or top-dose-only effect, or another doubt; inactive means no such curve, though single readings can be large or run the other way. Potencies of inconclusive entries are left out as doubtful fits. On the % scale 0 is the no-effect control and ±100 the full control effect; potency means the concentration at half of the fitted maximal effect; tags describe the fitted curve by direction and shape.", "data": [{"assay": "Primary qHTS for delayed death inhibitors of the malarial parasite plastid, 48 hour incubation", "settings": "P. falciparum luciferase growth in erythrocytes; series mostly up to 28.7 µM; activity change, negative = inhibition: at the top concentration", "how_it_was_run": "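In quantitative HTS format, infected erythrocytes bearing luciferase-reporter parasites were treated for a single generation at 37 C. Luminescence after adding detection reagent served as the growth measure.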", "values": [{"smiles": "O=C(Cc1ccccc1)NC(NC(=S)Nc1cc(Cl)ccc1Cl)C(Cl)(Cl)Cl", "note": "(centres undefined)", "Potency": "inconclusive [inhibitor, single point]"}, {"smiles": "CSCC[C@H](NC(=O)OC(C)(C)C)C(=O)N1CCC(C(=O)NCC(=O)Nc2ccc(C)cc2)CC1", "Potency": "inconclusive [inhibitor, partial curve, poor fit]"}, {"smiles": "CC(NC(=O)c1ccccc1)c1nc2ccccc2n1Cc1ccc(C#N)cc1", "note": "(centres undefined)", "Potency": "inconclusive [inhibitor, partial curve]"}, {"smiles": "COC(=O)c1ccc2c(=O)[nH]c(COC(=O)c3c(-c4ccccc4Cl)noc3C)nc2c1", "Potency": "inconclusive [inhibitor, single point]"}, {"smiles": "COc1ccccc1CNC(=O)C1CC(c2ccc([N+](=O)[O-])cc2)=NO1", "note": "(centres undefined)", "Potency": "inconclusive [inhibitor, single point]"}, {"smiles": "CC1=NN(C(=S)Nc2ccccc2)C(c2ccccc2)C1", "note": "(centres undefined)", "Potency": "active: 9.28 µM"}, {"smiles": "COc1cc2c(cc1O)C[C@H]1c3c(cc(O)c(OC)c3-2)CCN1C", "Potency": "inconclusive [inhibitor, single point]"}, {"smiles": "O=C(CNC(=S)N(CCCN1CCOCC1)Cc1cccs1)N1CCCC1", "activity change, negative = inhibition": "inactive: 0.368%"}, {"smiles": "Cc1cc(=O)[nH]c(N/N=C/c2cc(C)n(-c3ccccc3)c2C)n1", "Potency": "inconclusive [inhibitor, single point]"}, {"smiles": "COc1ccc(Cl)cc1C(=O)OCC(=O)NC1CCCC(C)C1C", "note": "(centres undefined)", "Potency": "inconclusive [inhibitor, partial curve, poor fit]"}, {"smiles": "CCn1cc(C(=O)O)c(=O)c2cc(F)c(N3CCN(C(=S)NC(=O)c4ccccc4F)CC3)cc21", "Potency": "active: 4.15 µM"}, {"smiles": "O=c1c2ccccc2nc(SCc2ccncc2)n1CC1CCCO1", "note": "(centres undefined)", "Potency": "inconclusive [inhibitor, single point]"}, {"smiles": "CCOc1ccc(Nc2ncnc3c2cnn3-c2ccccc2)cc1", "activity change, negative = inhibition": "inactive: 42.9%"}, {"smiles": "Cc1ccc(C)c(NC(=O)CN(C)C(=O)c2ccccc2OCc2ccc(Cl)cc2)c1", "Potency": "inconclusive [inhibitor, partial curve, poor fit]"}, {"smiles": "O=C(Nc1ccc2c(c1)OCCO2)c1cccc2nc3ccccc3nc12", "Potency": "inconclusive [inhibitor, partial curve]"}, {"smiles": "CCCCCSc1nc(N2CCOCC2)c2c(c1C#N)CC(C)(C)OC2", "Potency": "active: 9.28 µM"}, {"smiles": "O=C(Nc1ccccc1-c1nnn(CC(=O)N2CCCc3ccccc32)n1)c1ccc(Cl)cc1", "Potency": "inconclusive [inhibitor, single point]"}, {"smiles": "CCC(C)c1ccc(NC(=O)CN(C)CC(=O)Nc2cccc(OC)c2)cc1", "note": "(centres undefined)", "Potency": "active: 11.7 µM"}, {"smiles": "Cc1ccccc1-n1c(SCC(=O)Nc2ccc3c(c2)OCO3)nnc1-c1ccccn1", "Potency": "inconclusive [inhibitor, single point]"}, {"smiles": "C=CCn1c(SCc2csc(C)n2)nc2sc3c(c2c1=O)CCC(C)C3", "note": "(centres undefined)", "Potency": "active: 11.7 µM"}, {"smiles": "COC(=O)C1(C)CN(S(=O)(=O)c2ccc(C)cc2)c2cc(OC)ccc2C1=O", "note": "(centres undefined)", "Potency": "inconclusive [inhibitor, partial curve, poor fit]"}, {"smiles": "Cc1cccc(NCc2cc(Cl)cc(Cl)c2O)n1", "Potency": "active: 10.4 µM"}, {"smiles": "C=CC#CC1(O)CC(C)[N+](C)(C)CC1C", "note": "(centres undefined)", "activity change, negative = inhibition": "inactive: -0.563%"}, {"smiles": "CCCN(CCC)CC(O)CN1C(=O)NC(C)(C)C1=O", "note": "(centres undefined)", "activity change, negative = inhibition": "inactive: 4.25%"}, {"smiles": "CC(C)(C)n1nc(-c2ccc(Cl)cc2)c2c(N)ncnc21", "Potency": "active: 11.7 µM"}, {"smiles": "NC(=O)c1c(NC(=O)C2c3ccccc3Oc3ccccc32)sc2c1CCCCC2", "activity change, negative = inhibition": "inactive: -15.9%"}, {"smiles": "COc1ccc(-c2nnc(SCC(=O)N3CCOCC3)o2)cc1OC", "activity change, negative = inhibition": "inactive: 11.3%"}, {"smiles": "COc1cc2c(cc1OC)CN(CC(=O)NC(=O)NCc1ccco1)CC2", "Potency": "inconclusive [inhibitor, single point]"}, {"smiles": "Cc1ccc(S(=O)(=O)N2CCN(C3CC(=O)N(Cc4ccccc4)C3=O)CC2)cc1C", "note": "(centres undefined)", "Potency": "inconclusive [inhibitor, partial curve, poor fit]"}, {"smiles": "CCOC(=O)N1CCC(NC(=O)c2cc(S(=O)(=O)N3CCCC3)cn2C)CC1", "Potency": "active: 7.38 µM"}, {"smiles": "O=C(O)CC1S/C(=N/N=C/c2ccccn2)NC1=O", "note": "(centres undefined)", "Potency": "active: 5.22 µM"}, {"smiles": "CC1CN(S(=O)(=O)c2cc(C(=O)NCc3ccncc3)ccc2Cl)CC(C)O1", "note": "(centres undefined)", "Potency": "inconclusive [inhibitor, single point]"}, {"smiles": "CN(C)c1cccc(C(=O)N2CCCC(C(=O)c3cc(F)ccc3F)C2)c1", "note": "(centres undefined)", "Potency": "inconclusive [inhibitor, single point]"}, {"smiles": "CCN(c1ccccc1)S(=O)(=O)c1ccc(OC)c(NC(=O)CNCCc2ccccc2)c1", "Potency": "active: 11.7 µM"}, {"smiles": "C/[N+]([O-])=C\\CC(=O)c1ccc(-c2ccccc2)cc1", "Potency": "inconclusive [inhibitor, single point]"}, {"smiles": "CCC(C(=O)OCc1csc(CC(=O)Nc2ccccc2C)n1)c1ccccc1", "note": "(centres undefined)", "Potency": "active: 11.7 µM"}, {"smiles": "COc1ccccc1N1CCN(C(=O)C2CCN(C(=O)c3cccc(Cl)c3)CC2)CC1", "Potency": "inconclusive [inhibitor, full curve, poor fit]"}, {"smiles": "O=C(CSc1nnc2ccccn12)NCc1ccc2c(c1)OCO2", "activity change, negative = inhibition": "inactive: 15.4%"}, {"smiles": "N#Cc1nc(COc2ccc(-c3ccccc3)cc2)oc1NCCCN1CCOCC1", "Potency": "inconclusive [inhibitor, partial curve, poor fit]"}, {"smiles": "COc1ccc(NS(=O)(=O)c2ccc(C)c(C(=O)N3CCC3)c2)cc1", "activity change, negative = inhibition": "inactive: 12.2%"}, {"smiles": "Cc1ccc(S(=O)(=O)N2CCOCC2)cc1C(=O)OCC(=O)NC1CCCC(C)C1C", "note": "(centres undefined)", "Potency": "inconclusive [inhibitor, partial curve]"}, {"smiles": "Cc1sc2ncnc(N3CCC(C(=O)Nc4cc(Cl)ccc4Cl)CC3)c2c1C", "Potency": "inconclusive [inhibitor, single point]"}, {"smiles": "CCn1nc2cc(C(=O)NCC34CC5CC(CC(C5)C3)C4)ccc2c1OC", "Potency": "active: 11.7 µM"}, {"smiles": "CCN(CC)CC#CCC(O)(c1ccccc1)C1CCCCC1", "note": "(centres undefined)", "activity change, negative = inhibition": "inactive: 14.5%"}, {"smiles": "O=C(NCc1ccccc1)c1nc[nH]c1C(=O)NCc1ccccc1", "Potency": "inconclusive [inhibitor, single point]"}, {"smiles": "COCCn1c(=NC(=O)c2ccc(S(=O)(=O)N3CCc4ccccc4C3)cc2)sc2cc(S(N)(=O)=O)ccc21", "Potency": "inconclusive [inhibitor, partial curve, poor fit]"}, {"smiles": "Cc1ccc(C)c(N2C(=O)CN=C2Nc2ccccc2Cl)c1", "Potency": "inconclusive [inhibitor, single point]"}, {"smiles": "CCCCSc1nc(C)cc(NC(=S)Nc2ccc(OC)cc2)n1", "Potency": "inconclusive [inhibitor, partial curve]"}, {"smiles": "COc1ccc(NC(=O)Cc2nc3ccccc3[nH]2)cc1", "Potency": "active: 11.7 µM"}, {"smiles": "COc1cc([N+](=O)[O-])cc(/C=N/NC(=O)Cn2cncn2)c1O", "activity change, negative = inhibition": "inactive: -15.3%"}, {"smiles": "Cn1c(=O)c2c(n(Cc3ccccc3)c1=O)NC(=O)C2CC(=O)NCc1cccc(Cl)c1", "note": "(centres undefined)", "Potency": "inconclusive [inhibitor, single point]"}, {"smiles": "CCN(CC(=O)Nc1ccc2c(c1)OCO2)CC(=O)Nc1ccccc1C(F)(F)F", "Potency": "inconclusive [inhibitor, single point]"}, {"smiles": "O=C(COc1ccccc1)c1cn(Cc2ccccc2)c2ccccc12", "Potency": "inconclusive [inhibitor, partial curve]"}, {"smiles": "COCCC1CCCCN1Cc1cn(-c2ccccc2)nc1-c1ccc2c(c1)OCO2", "note": "(centres undefined)", "Potency": "inconclusive [inhibitor, partial curve, poor fit]"}, {"smiles": "COC(=O)C(C)Oc1ccc2cc(-c3ccccc3)c(=O)oc2c1", "note": "(centres undefined)", "activity change, negative = inhibition": "inactive: 47%"}, {"smiles": "COc1cc2c(cc1OC)CN(CC(=O)Nc1ccc(Cl)c(S(=O)(=O)N(C)C)c1)CC2", "Potency": "active: 13.1 µM"}, {"smiles": "Cc1c(Cl)cnc(NC(=O)COC(=O)C2CC3CCCC(C2)C3=O)c1Cl", "note": "(centres undefined)", "Potency": "inconclusive [inhibitor, single point]"}, {"smiles": "COc1ccc(NC(=O)CN(C)C(=O)c2oc3c(ccc4ccccc43)c2C)cc1", "Potency": "active: 0.185 µM"}, {"smiles": "CNC(=S)N/N=C/c1cn(Cc2c(F)cccc2Cl)c2ccccc12", "Potency": "inconclusive [inhibitor, single point]"}, {"smiles": "N#CCSc1nnc(Cc2cccs2)n1C1CCCCC1", "Potency": "inconclusive [inhibitor, partial curve, poor fit]"}, {"smiles": "Cc1n[nH]c(=S)n1/N=C/c1cccc(OCc2ccccc2)c1", "Potency": "active: 2.62 µM"}, {"smiles": "Cc1c(Cc2ccccc2)c(=O)oc2cc(OCC(=O)NCC(O)c3ccccc3)ccc12", "note": "(centres undefined)", "Potency": "inconclusive [inhibitor, single point]"}, {"smiles": "CCOc1ccc(N(Cc2nnc3n2CCCCC3)C(=O)Nc2cccc(C)c2)cc1", "activity change, negative = inhibition": "inactive: -3.98%"}, {"smiles": "CC(C)(C)c1ccc(C2C(C(=O)c3ccco3)=C(O)C(=O)N2CC2CCCO2)cc1", "note": "(centres undefined)", "activity change, negative = inhibition": "inactive: 14.4%"}, {"smiles": "COc1ccc(-c2nn(-c3ccccc3)cc2C(=O)NC(=S)NNC(=O)c2ccncc2)cc1", "Potency": "inconclusive [inhibitor, partial curve, poor fit]"}, {"smiles": "CCc1nc(SCC(=O)Nc2sc(C)c(C)c2C(=O)OC)c2ccccc2n1", "Potency": "inconclusive [inhibitor, single point]"}, {"smiles": "O=C(CSc1nnc(Cc2csc(Nc3cccc(Cl)c3)n2)o1)N1CCc2ccccc21", "Potency": "inconclusive [inhibitor, single point]"}, {"smiles": "CC(C)N(C(=O)/C=C/c1cccc([N+](=O)[O-])c1)C(C)C", "Potency": "inconclusive [inhibitor, single point]"}, {"smiles": "Cc1ccc(/C=C2\\SC(=S)N(CCCC(=O)N3CCOCC3)C2=O)cc1", "Potency": "active: 13.1 µM"}]}]}
